# From PubChem BioAssay AID1347073 (National Center for Advancing Translational Sciences (NCATS), 2019)
# In all, about 45,000 compounds went through this assay and about 200 (0.44%) were called active. Inconclusive results (about 7%) are left out. Calls follow the shape of the dose curve; as a rule, active = well fitted activation curve with a large enough effect; inconclusive = small, poorly fitted or top-dose-only effect; inactive = no such curve, though single readings can be large or run the other way. The list shows a part of the results.
# Experiment: qHTS of TDP-43 Inhibitors: NCGC Sytravon Library Screen; also: 0% is about no effect; nearly all actives have a fitted effect of over 55% in size
# Details: yeast TDP-43 toxicity rescue, BacTiter-Glo growth, 24 h; series mostly up to 46.1 µM; growth rescue (activation): at the top concentration
# In short: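 TDP-43-expressing yeast, pregrown in raffinose, seeded at OD600 0.02 in galactose medium with compound for 24 hr at 30 deg C. Growth read by BacTiter-Glo luminescence, so rescue of toxicity appears as activation.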
row,SMILES,growth rescue (activation)
1,Cc1cccc(C)c1NC(=O)c1cccc(COc2cc(Cl)ccc2Cl)c1,inactive: 13.1%
2,CC1CN(S(=O)(=O)c2cccc(C(F)(F)F)c2)CN1C(=O)N1CCOCC1 (stereo not given),inactive: 3.26%
3,O=C(O)c1ccc(Cl)c(S(=O)(=O)N(Cc2ccccc2)c2ccccc2)c1,inactive: 15.1%
4,O=Cc1ccc(-c2cccc(C(=O)O)c2)o1,inactive: 6.65%
5,COc1ccccc1N(CC(=O)NCCc1ccccc1)C(=O)CCC(=O)Nc1ccccn1,inactive: 3.14%
6,Cc1cccc(C)c1Nc1c(-c2ccccc2O)nc2ncccn12,inactive: 5.23%
7,Cc1ccccc1CNC(=O)c1ccc2c(c1)N(Cc1ccccc1)CCS2,inactive: 2.13%
8,CCOC(=O)C(C)/C(C)=N\Nc1ccc([N+](=O)[O-])cc1[N+](=O)[O-] (stereo not given),inactive: 31.3%
9,CCOc1ccc(NC(=O)COC(=O)C2C3CC4OC(=O)C2C4C3)cc1 (stereo not given),inactive: 2.11%
10,CC(=O)NNc1nc(-c2ccccc2)cs1,inactive: 6.03%
11,CC(=O)c1sc(NC(=O)c2c(F)cccc2F)nc1-c1ccccc1,inactive: -6.47%
12,CCC(=O)c1ccc(OCC(=O)NCCc2ccccn2)cc1,inactive: 18.3%
13,Cc1cccn2c(=O)c3cc(C(=O)NCC4CCCO4)c(=N)n(C4CCCCC4)c3nc12 (stereo not given),inactive: -11.9%
14,COc1cc(/C=N/NC(=O)Cc2cccs2)c([N+](=O)[O-])cc1OC,inactive: -13.3%
15,COc1ccc(S(=O)(=O)N2CCCN(CC(=O)Nc3ccccc3F)CC2)cc1,inactive: -24.3%
16,COc1cccc(OCc2nn3c(=O)c(-c4ccccc4)nnc3s2)c1,inactive: 9.71%
17,Cc1ccc(SCC(=O)NNC(=O)CNC(=O)c2ccccc2F)cc1,inactive: -0.268%
18,CCCCCCCC(=O)Nc1ccc(C(=O)N/N=C/c2cccc([N+](=O)[O-])c2)cc1,inactive: 18.6%
19,Cc1nn(CC(=O)NCc2ccccc2Br)c(=O)c2cc3occc3n12,inactive: -0.81%
20,N#C/C(=C\c1ccc(F)cc1)C(=O)NC1CCS(=O)(=O)C1 (stereo not given),inactive: -2.53%
21,COc1ccc(C)cc1NC(=O)c1ccc(S(=O)(=O)N2CCCCC2)cc1,inactive: 33.9%
22,COc1ccc(S(=O)(=O)Nc2ccc(Cl)cn2)cc1,inactive: 24.7%
23,COc1ccc2nc(N/C(N)=N/C(=S)Nc3c(C)cccc3C)nc(C)c2c1,inactive: 19%
24,CNc1oc(/C=C/c2cc(OC)c(OC)c(OC)c2)nc1C#N,inactive: 26.4%

row,SMILES,growth rescue (activation)
1,Nc1ccccc1SCC(=O)Nc1ccc2c(c1)OCCO2,inactive: 4.64%
2,COc1ccc(/C=C(\NC(=O)c2ccc([N+](=O)[O-])cc2)C(=O)N2CCOCC2)cc1,inactive: -8.21%
3,COC(=O)Cc1ccc(NC(=S)NCc2ccc(S(N)(=O)=O)cc2)cc1,inactive: 0.402%
4,COCCN1C[C@@H](CO)O[C@@H](n2cnc3c(N(C)C)ncnc32)C1,inactive: -11.4%
5,Cn1c(CN2CCCCC2)nc2cc(NC(=O)c3ccc(Cl)cc3)ccc21,inactive: 4.87%
6,Cc1ccc2nc(NC(=O)CS(=O)(=O)Cc3ccccc3)sc2c1,inactive: 29.6%
7,CCCOc1ccc(/C=N/NC(=O)C2CC2)c(OCCC)c1,inactive: 22.7%
8,COc1cccc(C(=O)NC(=S)N2c3ccccc3CC2C)c1OC (stereo not given),inactive: 24.2%
9,Cc1c(NC(=O)CN2CCC(C(N)=O)CC2)cccc1[N+](=O)[O-],inactive: 0.809%
10,Cc1cc(C)nc(Nc2nc(=O)c3ccccc3s2)n1,inactive: 6.97%
11,C=CCn1c(C)cc(C2=NNC(=Nc3ccc(C)cc3)SC2)c1C,inactive: -3.86%
12,CCOC(=O)c1[nH]c(C)c(C(=O)N2CCN(c3ccccc3OC)CC2)c1C,inactive: 5.57%
13,O=C(NCc1cccc(C(F)(F)F)c1)c1csc([C@H]2C[C@H](O)[C@@H](CO)O2)n1,inactive: -4.23%
14,COc1ccc(CN2CC(=O)N(c3cccc(Cl)c3)C2=S)cc1OC,inactive: 24.4%
15,O=C(CSc1nc2ccc(NC(=O)c3ccccc3C(=O)O)cc2s1)Nc1c(Cl)cccc1Cl,inactive: 18.1%
16,O=c1[nH]c2ccccc2nc1/C=C/c1ccc(O)cc1,inactive: -5.62%
17,COc1ccc(NC(=S)Nc2ccc(S(N)(=O)=O)cc2)c(C)c1,inactive: 0.835%
18,O=C(CCn1cnnn1)NC1CCCN(Cc2ccccc2F)C1 (stereo not given),inactive: 8.15%
19,Cc1ccc(-n2nnc3c(=O)n(CC(N)=O)cnc32)cc1,inactive: 3.67%
20,Cc1cccc(N2CC(C(=O)Nc3nc4ccc(S(C)(=O)=O)cc4s3)CC2=O)c1C (stereo not given),inactive: 2.19%
21,Cc1ccccc1CCN(C(=O)c1csnn1)C(C(=O)NC1CCCC1)c1ccncc1 (stereo not given),inactive: -23.9%
22,O=S(=O)(Nc1nccs1)c1cnc(Cl)c(Br)c1,inactive: 19.1%
23,COC(=O)c1ccc(C(NC(=O)c2cccnc2)NC(=O)c2cccnc2)cc1,inactive: -1.07%
24,Cc1cnc(C(=O)OCC(=O)NC(C)CCc2ccccc2)cn1 (stereo not given),inactive: 9.15%

row,SMILES,growth rescue (activation)
1,Cc1cc(C(=O)NCCc2ccc(S(N)(=O)=O)cc2)c(C)o1,inactive: -25.6%
2,CCOC(=O)c1sc(NC(=O)CCN2CCCCCC2)c(C(=O)OCC)c1C,inactive: -16.5%
3,CC(=O)c1cccc(NC(=O)N2CCCC2C(=O)Nc2cccc(C)c2)c1 (stereo not given),inactive: 25.8%
4,Cc1cc(NC(=O)CSc2nccn2C)no1,inactive: -17.3%
5,COc1ccc(C(=O)N2C(=S)NC(=O)/C2=C\c2ccc(C)cc2)cc1,inactive: 7.65%
6,CCCCNC(=O)COC(=O)c1ccccc1F,inactive: 20%
7,N#Cc1c(Nc2ccccc2)c(C=O)c[nH]c1=O,inactive: 6.59%
8,CCc1nc2c(OCCOc3ccc(F)cc3)cccn2c1N(C)C(=O)c1ccc(OC)cc1,inactive: 5.42%
9,CCNC(=O)CSc1nc(-c2ccc(F)cc2)cs1,inactive: 18.2%
10,N#CCCN(C(=O)CSc1ccc2c(c1)OCCO2)c1ccc(F)cc1,inactive: 16.7%
11,CCn1ncc(CN2CCC(Oc3cc(C(=O)NC4CC4)ccc3OC)CC2)c1C,inactive: 4.47%
12,COc1ccc(C(=O)COC(=O)c2nn(C)cc2Cl)cc1,inactive: 2.29%
13,O=C(Nc1ccccc1)Nc1cccn(Cc2c(F)cccc2Cl)c1=O,inactive: -2.14%
14,Cc1ccc(NC(=O)NC(C)c2c(-n3cccc3)sc(C)c2C)cc1F (stereo not given),inactive: 4.29%
15,O=C(Nc1cccc(C(F)(F)F)c1)c1cccnc1NCCc1ccccc1,inactive: -87.2%
16,O=C(Nc1cccc([N+](=O)[O-])c1)c1ccncc1,inactive: 3.87%
17,O=C(NCCc1ccccn1)c1cc2ccccc2o1,inactive: 6.97%
18,CC1(C)C(=O)N(c2ccccc2)C1c1ccccc1O (stereo not given),inactive: -6.53%
19,Cc1nc(-c2cccc(NC(=O)c3cc4cc(Br)ccc4oc3=O)c2)cs1,inactive: -13.8%
20,Cc1ccccc1OCC(=O)NCCCNC(=O)c1ccncc1,inactive: -4.71%
21,CCCSc1nc2sc3c(c2c(=O)n1CC)CC(C)(C)OC3,inactive: 7.11%
22,Cc1cccc(OCC(=O)NCCCNC(=O)c2ccccn2)c1,inactive: 11.7%
